T1: biotin-labeled human interleukin-2 receptor beta subunit (ACROBiosystems) (human, UniProt P14784 27-239, biotin-labeled (site not stated))
T1 construct: Immobilized on a streptavidin (SA) chip at about 500 RU
T1 sequence (looked up): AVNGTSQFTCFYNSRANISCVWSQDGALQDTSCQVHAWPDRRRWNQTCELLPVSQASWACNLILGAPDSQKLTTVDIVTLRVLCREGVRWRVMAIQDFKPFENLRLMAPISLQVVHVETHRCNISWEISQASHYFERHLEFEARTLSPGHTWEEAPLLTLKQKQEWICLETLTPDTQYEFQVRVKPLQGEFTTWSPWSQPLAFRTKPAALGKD

T2: biotin-labeled human interleukin-2 receptor alpha subunit (ACROBiosystems) (human, UniProt P01589 22-213, biotin-labeled (site not stated))
T2 construct: Immobilized on a streptavidin (SA) chip at about 100 RU
T2 sequence (looked up): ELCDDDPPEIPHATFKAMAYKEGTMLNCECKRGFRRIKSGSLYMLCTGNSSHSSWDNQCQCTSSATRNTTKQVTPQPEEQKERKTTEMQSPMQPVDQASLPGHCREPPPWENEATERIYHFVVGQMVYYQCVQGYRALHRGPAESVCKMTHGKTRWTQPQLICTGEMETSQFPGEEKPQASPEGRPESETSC


Key:
[1] = target: T1, biotin-labeled human interleukin-2 …; assay: SPR (Biacore T200); biotinylated receptor on SA chip, analyte flowed; relative to aldesleukin = 100%
Text: (§1) In order to measure the binding affinities of each of the interleukin-2 analog long-acting conjugates obtained in Example 7 for the interleukin-2 alpha and beta receptors, surface plasma resonance (SPR, BIACORE T200, GE Healthcare) was used.
(§2) Specifically, biotin-labeled human interleukin-2 receptor alpha and beta subunits (ACROBiosystems) each were immobilized to a streptavidin biosensor chip (SA chip, Cytiva) at about 100 RU and 500 RU, and the interleukin-2 analog long-acting conjugates and aldesleukin, diluted in HBS-EP+ buffer (Cytiva, BR100669) by a two-fold dilution method, were allowed to flow at a flow rate of 20 μL/min. After the binding process for 3 minutes, only HBS-EP+ buffer was allowed to flow for 3 minutes at the same flow rate to induce the dissociation of the interleukin-2 analog long-acting conjugates or aldesleukin from the interleukin-2 receptors. The binding affinity was calculated through the association constant and dissociation constant thus obtained. The binding affinity was evaluated according to the 1:1 binding fitting model in the Biaevaluation program.
(§3) Table 5 below summarizes the relative binding affinity (%) of the prepared interleukin-2 analog long-acting conjugates for each of the alpha and beta receptors compared with the binding affinity of aldesleukin. In Table 5, each corresponding long-acting conjugate is expressed by using the interleukin-2 analog number constituting the same (e.g., the long-acting conjugate of interleukin-2 analog 21 is expressed as “interleukin-2 analog conjugate 21”).

[2] = target: T2, biotin-labeled human interleukin-2 …; assay: as above
Text: as §1, §2, §3

[3] = target: T2, biotin-labeled human interleukin-2 …; assay: SPR (Biacore T200); biotinylated receptor on SA chip

| Binder | Relative binding affinity (%) [1] [%] | Relative binding affinity (%) [2] [%] | binding result [3] |
| --- | --- | --- | --- |
| Interleukin-2 analog conjugate 41 (other, nitrogen of the N-terminal proline of one Fc chain linked to the opposite end of the 3.4 kDa PEG linker; N-terminus linked to one end of a 3.4 kDa PEG linker, also called long-acting conjugate of interleukin-2 analog 41) chain 1: PTSSSTKKTQLQLEHLLLDLQMILNGINNYKNPKLTRMLTFKFYMPKKATELKHLQCLEEELKPLEEVLNLAQSKNFHFDPRDVVSNINVFVLELKGSETTFMCEYADETATIVEFLNRWITFSQSIISTLT chain 2: [gap - human IgG4 Fc] | 5480 | 50.8 | – |
| Interleukin-2 analog conjugate 52 (other, nitrogen of the N-terminal proline of one Fc chain linked to the opposite end of the 3.4 kDa PEG linker; N-terminus linked to one end of a 3.4 kDa PEG linker, also called long-acting conjugate of interleukin-2 analog 52) chain 1: PTSSSTKKTQLQLEHLLLDLQMILNGINNYKNPKLTAMLTKKFYMPKKATELKHLQCLEEELKPLEEVLNLAQSKNFHFDPRDLISNINVFVLELKGSETTFMCEYADETATIVEFLNRWITFSQSIISTLT chain 2: [gap - human IgG4 Fc] | 2270 | – | no binding |
| Interleukin-2 analog conjugate 21 (other, nitrogen of the N-terminal proline of one Fc chain linked to the opposite end of the 3.4 kDa PEG linker; N-terminus linked to one end of a 3.4 kDa PEG linker, also called long-acting conjugate of interleukin-2 analog 21; interleukin-2 analog-3.4K PEG-immunoglobulin Fc region conjugate) chain 1: PTSSSTKKTQLQLEHLLLDLQMILNGINNYKNPKLTAMLTKKFYMPKKATELKHLQCLEEELKPLEEVLNLAQSKNFHFDPRDVVSNINVFVLELKGSETTFMCEYADETATIVEFLNRWITFSQSIISTLT chain 2: [gap - human IgG4 Fc] | 5430 | – | no binding |

More lines, now with the values ahead:

| Relative binding affinity (%) [1] [%] | Relative binding affinity (%) [2] [%] | binding result [3] | Binder |
| --- | --- | --- | --- |
| 100 | 100 | – | aldesleukin (interleukin-2 analog 1) (ligand, also called Analog 01) not shown |
| 13400 | 81 | – | Interleukin-2 analog conjugate 104 (other, nitrogen of the N-terminal proline of one Fc chain linked to the opposite end of the 3.4 kDa PEG linker; N-terminus linked to one end of a 3.4 kDa PEG linker) chain 1: PTSSSTKKTQLQLEHLRLDLEMILNGINNYKNPKLTRMLTFKFYMPKKATELKHLQCLEDELKPLEEVLNLAQSKNFHFEPRDVVSNINVFVLELKGSETTFMCEYADETATIVEFLNRWITFSQSIISTLT chain 2: [gap - human IgG4 Fc] |
| 13300 | 113 | – | Interleukin-2 analog conjugate 105 (other, nitrogen of the N-terminal proline of one Fc chain linked to the opposite end of the 3.4 kDa PEG linker; N-terminus linked to one end of a 3.4 kDa PEG linker, also called long-acting conjugate of interleukin-2 analog 105) chain 1: PTSSSTKKTQLQLEHLRLDLEMILNGINNYKNPKLTRMLTFKFYMPKKATELKHLQCLEEELKPLEDVLNLAQSKNFHFEPRDVVSNINVFVLELKGSETTFMCEYADETATIVEFLNRWITFSQSIISTLT chain 2: [gap - human IgG4 Fc] |
| 15400 | 65.2 | – | Interleukin-2 analog conjugate 86 (other, nitrogen of the N-terminal proline of one Fc chain linked to the opposite end of the 3.4 kDa PEG linker; N-terminus linked to one end of a 3.4 kDa PEG linker, also called long-acting conjugate of interleukin-2 analog 86) chain 1: PTSSSTKKTQLQLEHLRLDLEMILNGINNYKNPKLTRMLTFKFYMPKKATELKHLQCLEEELKPLEEVLNLAQSKNFHFEPRDVVSNINVFVLELKGSETTFMCEYADETATIVEFLNRWITFSQSIISTLT chain 2: [gap - human IgG4 Fc] |

Source: patent publication US20260242436A1 (HANMI PHARM, published 2026)
